Here are results for 42 sequences from PMC7819943, “Rice protein-binding microarrays: a tool to detect cis-acting elements near promoter regions in rice”.

This is one part of the list.

This experiment deals with T1, OsWOX13 (Oryza sativa, UniProt Q5QMM3 1-267).
T1 sequence: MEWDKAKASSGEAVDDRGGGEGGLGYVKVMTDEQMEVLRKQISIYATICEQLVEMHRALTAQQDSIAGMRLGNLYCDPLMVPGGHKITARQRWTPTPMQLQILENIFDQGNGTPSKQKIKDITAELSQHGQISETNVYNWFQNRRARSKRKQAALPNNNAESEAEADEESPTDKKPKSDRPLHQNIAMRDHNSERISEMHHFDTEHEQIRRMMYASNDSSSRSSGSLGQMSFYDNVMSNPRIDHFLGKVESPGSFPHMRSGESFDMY
The experiment can be described thus: protein-binding microarray (RPBM); PBS, 2% BSA, 51.3 ng/ul salmon testes DNA, 50 uM zinc acetate, 200 nM TF, 25 C, 1 h; high values mean tight binding. The conditions noted are these: protein: recombinant; tags: N-terminal polyhistidine and DsRed monomer fusion (pET32a); label: CyDye5-dUTP incorporated in the synthesized complementary strand; 3' TTTTT single-stranded linker to array surface; dsDNA, one strand shown. The essentials: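 A custom Agilent array was converted to double-stranded form by primer extension with Cy5-dUTP and blocked with 2% BSA. Protein at 200 nM in PBS with 2% BSA, salmon testes DNA and 50 µM zinc acetate was applied for 1 h at 25 °C, followed by washing. The proteins were polyhistidine–DsRed N-terminal fusions of transcription factors, expressed in E. coli BL21-CodonPlus and Ni–NTA-purified. The binding signal is per-feature fluorescence intensity (arbitrary units) from an Axon 4000B scanner.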
As to “GTTGCCTCTTAATTTATGAGTGAATGATGTGGATAAATTTCGGAGTCACCTAGTGCAG”, the binding signal is 9080 fluorescence intensity (a.u.). For “CCCAAATCAGCCCACAGTCAAACCGCGTCGTCTTCCTCCTCGGAGTCACCTAGTGCAG” the value was 4096 fluorescence intensity (a.u.); for “TCAAATTACACTGATTTTAATAGTTGAGGGTCGAGATATCCGGAGTCACCTAGTGCAG”, 21900 fluorescence intensity (a.u.). For “CATTAACAATTTACTTGGTTGACCACCTGAAAATCCTAGGCGGAGTCACCTAGTGCAG” the value was 3860 fluorescence intensity (a.u.); for “GTGGGTGGTTGGTGGTGGTGGTGGTGGTGGTGATCTTTGGCGGAGTCACCTAGTGCAG”, 6950 fluorescence intensity (a.u.). The result for “TCATGCAGTAATTAATCAGTGACAGTGAACCTTGTTAGTACGGAGTCACCTAGTGCAG” reads 17400 fluorescence intensity (a.u.); that for “CTATAAATGGGCTGTAATGAATATATGTGTTTATTTGGAACGGAGTCACCTAGTGCAG”, 4810 fluorescence intensity (a.u.). On to “CGGCACACTGATTGGCTACCAACTGATTTGGCGGTGTTGGCGGAGTCACCTAGTGCAG”, for which the binding signal was 44200 fluorescence intensity (a.u.).

“AGTCTGATTGGACATGGGATCAGGTATGTAACTTTACTTGCGGAGTCACCTAGTGCAG”: the binding signal is 50200 fluorescence intensity (a.u.).

Regarding “CTATAATTGTGAAATTATCACACTAGGCTGTTTTCAGACACGGAGTCACCTAGTGCAG”, the binding signal was 23300 fluorescence intensity (a.u.). Take “GTGTGTATGACAGGTTGATGTGATAGAAAAGGACTAAAGTCGGAGTCACCTAGTGCAG”: the binding signal was 5220 fluorescence intensity (a.u.). For “TTTATAATTTATATTTCAAGATGAATGTAGCATTATTCCACGGAGTCACCTAGTGCAG” the value was 11700 fluorescence intensity (a.u.). Regarding “TTTACTAGATTTATATTTGAAATACGTTTTACGAGCAAATCGGAGTCACCTAGTGCAG”, the binding signal is 5380 fluorescence intensity (a.u.). As for “CGCAATCATTACACAGACGTGGGGACTATACTATACTATACGGAGTCACCTAGTGCAG”, the binding signal is 6250 fluorescence intensity (a.u.). As for “TCTAATTTATAGTGCCATATTATATTTAGCATGAATTTAGCGGAGTCACCTAGTGCAG”, the binding signal is 11400 fluorescence intensity (a.u.).

In the case of “AATCTTTCAATCTTCTTCACTCTTCAGTTTCTTTCATTCTCGGAGTCACCTAGTGCAG”, the binding signal is 4290 fluorescence intensity (a.u.).

In the case of “AGTCTGATTTGCCTCCTCTCCCTCCTCCCCACTTCAAGATCGGAGTCACCTAGTGCAG”, the binding signal was 11700 fluorescence intensity (a.u.). The result for “TGATTAATTAAGTATTAGCTAATTATTTTCATAAATGGATCGGAGTCACCTAGTGCAG” reads 20300 fluorescence intensity (a.u.); that for “AGTAGACTGATCAGACTGATGTAGTATCATCCTCCTGGCCCGGAGTCACCTAGTGCAG”, 20000 fluorescence intensity (a.u.).

For “TCGTAGATTAACGTGCAAATGAAAATAGAGCTGATAGCCGCGGAGTCACCTAGTGCAG”, the binding signal was 6900 fluorescence intensity (a.u.). The result for “AAGAAATCTTCAGTACTTAAATTGATTTATCCTCCGAACTCGGAGTCACCTAGTGCAG” reads 5940 fluorescence intensity (a.u.); that for “ATCAAATTTACTTGCATGACAACGAAGAGAACCCGTTATTCGGAGTCACCTAGTGCAG”, 5420 fluorescence intensity (a.u.); that for “GTTATAAATGCCGTAAATTAAGTCAAGTTAACGTATCTGTCGGAGTCACCTAGTGCAG”, 6620 fluorescence intensity (a.u.). For “TCCAAAATTAACTCTATTCATCCCTAACTAACGTCTCTGTCGGAGTCACCTAGTGCAG” the value was 6120 fluorescence intensity (a.u.); for “TCTTGACTATAAATAATTACCACAATAATATACTACTTCACGGAGTCACCTAGTGCAG”, 9140 fluorescence intensity (a.u.); for “CGGAGAGAGATTTGATAATTTAACACTCCTTTTCAATTATCGGAGTCACCTAGTGCAG”, 6640 fluorescence intensity (a.u.). The result for “AAGTAACACATTGCAATCAATTCAGCTCTACATCCACAATCGGAGTCACCTAGTGCAG” reads 9060 fluorescence intensity (a.u.). Turning to “GAAATAGACATACATTATGTCCAGATTCAAACTCAGGATTCGGAGTCACCTAGTGCAG”, the binding signal was 8340 fluorescence intensity (a.u.).

Consider “ATTTGATTGACGAGGTATAGTAAAATGCGTCAACTTATGTCGGAGTCACCTAGTGCAG”, for which the binding signal was 63200 fluorescence intensity (a.u.). The result for “AACTTAGATTTAAATTTAGAAATTTATGATATAATCTTTTCGGAGTCACCTAGTGCAG” reads 19900 fluorescence intensity (a.u.).

For the sequence “TCAAAATCTAGCTGTTTCAATCTATCCATCTTGCCTAGTGCGGAGTCACCTAGTGCAG”, the binding signal was 3350 fluorescence intensity (a.u.).

In the case of “GAGGCGATTCACCAATCACCATCGCGGCATGCATGATCCCCGGAGTCACCTAGTGCAG”, the binding signal is 5120 fluorescence intensity (a.u.). The result for “GTAGATGATTTACTTAATGTGTTCATAAGGTGGATGGCTTCGGAGTCACCTAGTGCAG” reads 32500 fluorescence intensity (a.u.); that for “TGTGGTTCAGTAATTGGTAATGGTATGTCTAGAGAAAATACGGAGTCACCTAGTGCAG”, 4400 fluorescence intensity (a.u.); that for “TTTCCTCTATAATTTCACTTGATTAAGTTGATTTAACTTTCGGAGTCACCTAGTGCAG”, 10200 fluorescence intensity (a.u.). For the sequence “TGTCACTTAATTAAAAGTTCCCAAACCGTTTGATTTGTGTCGGAGTCACCTAGTGCAG”, the binding signal was 16900 fluorescence intensity (a.u.). For “AGTCAAGAATTATGAAAATTGATGGAGTAACACCGCTACTCGGAGTCACCTAGTGCAG” the value was 11900 fluorescence intensity (a.u.); for “CTTGGTTGTTTAATTTGTTTGTTTGCTTTAGCTCTGCTCCCGGAGTCACCTAGTGCAG”, 4010 fluorescence intensity (a.u.).

For “ATCCAAGTAATTAGCGCTTATACTGCGATTTGGCTAAACCCGGAGTCACCTAGTGCAG”, the binding signal is 13000 fluorescence intensity (a.u.). The result for “CCCAATCAAGTAGGAGAAATTTGTGTTCGAGGGCCAAATGCGGAGTCACCTAGTGCAG” reads 4000 fluorescence intensity (a.u.); that for “TTTGATGACAAACCCTAATTTGGAAGGGATGAAACAACTACGGAGTCACCTAGTGCAG”, 9480 fluorescence intensity (a.u.); that for “AACCGATAATTGAGCCTTGCAATATCCATTAAAGGGAACCCGGAGTCACCTAGTGCAG”, 18000 fluorescence intensity (a.u.).
